Not every entry of the source has a single result; some have several. This is not the full list of results. An entry can have further records. The values listed for one entry are repeats (runs, samples, wells, individuals or studies). Additions like (4×) give the number of equal values in this list.

This experiment deals with 786-0 complex spheroids with HUVEC/MSC, growth % test/control. The experiment in a line: Anticancer human tumor 786-0 cell line growth inhibition [AhR].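 Also: compound exposure lasted seven days before the read-out.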 The following applies: stronger effect = lower value. The source says:
Multicellular complex tumor spheroid response to aryl hydrocarbon receptor antagonists in combination with a variety of drugs and investigational agents in selected tumor cell lines
The current study was undertaken to assess response to aryl hydrocarbon receptor antagonists in combination with standard-of-care drugs and investigational agents in solid tumor complex spheroid models. Complex spheroids include a stromal component modeled by human endothelial cells (HUVEC) and fibroblasts modeled by human mesenchymal stem cells (MSCs). The concentration ranges selected for each drug and investigational agent were based upon clinically achievable concentrations if the clinical Cmax of the agent was known.
Compounds. The drugs and investigational agents: BAY 2416964 (NSC825713), GNF351 (NSC835774), CH-223191 (NSC835775), CPI-455 (NSC825282), aza-TdCyd (NSC777586), decitabine (NSC127716), belinostat (NSC758774), entinostat (NSC756642), pevonedistat (NSC761192), tazemetostat (NSC777109), talazoparib (NSC765396), olaparib (NSC753686), selinexor (NSC780203), nedisertib (M3814, NSC802822), bortezomib (NSC756655), venetoclax (NSC766270), doxorubicin (NSC123127), elimusertib (BAY189344, NSC800525), ceralasertib (AZD6738, NSC777638), TAK-243 (NSC785004), alisertib (NSC759677), etoposide (NSC141540), topotecan (NSC609699), eribulin (NSC707389), gemcitabine (NSC613327), carboplatin (NSC241240), cisplatin (NSC119875), and SN-38 (NSC673596) were obtained from the National Cancer Institute (NCI) Developmental Therapeutics Program Chemical Repository (32). The FDA-approved anticancer drug set is available from the Developmental Therapeutics Program at https://dtp.cancer.gov/organization/dscb/obtaining/available plates.htm. […] The stock solutions were prepared in dimethyl sulfoxide (DMSO, Sigma-Aldrich, St. Louis, MO, cat. D2650), except for the platinum compounds which were prepared in saline (Quality Biological, Gaithersburg, MD, cat. 114-055-101), at 800-fold the tested concentration and stored at -70 degrees C prior to their use. All drugs and investigational agents were tested over a range starting from a high concentration at or near the clinical Cmax and decreasing in half-log increments. If the clinical Cmax for an agent had not been determined, the highest concentration tested was 10 microM (Table 1).
Cell Culture. All cells were maintained in an incubator at 37 degrees C and 5% CO2 with 95% humidity. The PDC lines were cultured according to standard operating procedures established by the NCI PDMR (https://pdmr.cancer.gov). Briefly, all PDCs were thawed and cultured in Matrigel-coated flasks prepared with a working solution of 1X Ham's F-12 nutrient mix, without supplementation (Invitrogen, Waltham, MA, cat. 11765054), 100 U/mL penicillin-streptomycin (Invitrogen, cat. 15140122), and 2.5% Matrigel (Corning Inc., Corning, NY, cat. 354248) for the first three passages. All PDCs were cultured in complete DMEM/F-12 media containing advanced DMEM/F-12 (Invitrogen, cat. 12634028), 4.9% defined fetal bovine serum, heat inactivated (HyClone Laboratories Inc., Logan, UT, cat. SH30070.03HI), 389 ng/mL hydrocortisone (Sigma-Aldrich, cat. H4001), 9.7 ng/mL human EGF recombinant protein (Invitrogen, cat. PHG0313), 23.4 microg/mL adenine (Sigma-Aldrich, cat. A2786), 97.3 U/mL penicillin-streptomycin (Invitrogen, cat. 15140122), 1.9 mM L-glutamine (Invitrogen, cat. 25030081), and 9.7 microM Y-27632 dihydrochloride (Tocris Bioscience, Bristol, United Kingdom, cat. 1254). The PDCs were cultured in complete DMEM/F12 media without 10 microM Y-27632 dihydrochloride for at least two passages prior to the screen. The established cell lines NCI-H1341 and […] were cultured in DMEM/F-12, HEPES (Invitrogen, cat. 11330032), 5% defined fetal bovine serum (HyClone Laboratories Inc., cat. SH30070.03), ITS premix universal culture supplement [insulin (5 microg/mL), transferrin (5 microg/mL), and selenious acid (5 ng/mL)] […]

In the case of `Cc1cncc(-c2nc(NCCc3c[nH]c4ccccc34)c3ncn(C(C)C)c3n2)c1`, the viability, T/C (compound alone 0.316 µM) was 97.7, 106, 123 (2×), 113 (2×), 108 (2×), 115 (2×), 121 (3×), 103, 119, 127, 117, 116, 109, 110%; the viability, T/C (compound alone 1 µM) is 97.3, 96, 132, 110, 98, 108 (2×), 112 (4×), 106, 97.2, 115, 114 (3×), 98.5, 103, 92%; the viability, T/C (compound alone 3.16 µM) was 67.1, 68.8, 78.4, 82, 77.2, 89.6, 91.2, 69.6, 63.8, 82.7, 74.6, 71.3, 75.5, 79.8, 87.8, 74.8, 65.1, 76.2, 62.6, 57.9%.
For the molecule `Cc1ccccc1N=Nc1ccc(NC(=O)c2ccnn2C)c(C)c1`, the viability, T/C by setting is: (compound alone 3.16 µM) 81.9, 99.1, 97.3, 100, 91.5, 95.3, 96.5, 85.4, 90.6, 82.5, 84.5, 80, 88.7, 81.2, 98.5, 98.1, 94.6, 109, 103%; (compound alone 10 µM) 86.8 (2×), 99.6, 98.9, 95.2, 91.3, 91.5, 92.6, 95, 110, 97, 95.5, 104, 79.7, 85.7, 90.5, 106, 100, 92.8, 90.4, 89.8%.
On to `CC(CO)NC(=O)c1cc(-c2ccc(Cl)cc2)nn(-c2cnn(C)c2)c1=O` (centres undefined), for which the viability, T/C is 101, 83.9, 65.5, 76.2, 93.5, 112, 102 (2×), 92.1, 97.9 (2×), 99.2, 105 (2×), 80.3, 104, 96.6, 94.2, 106, 93.9, 94.3% (compound alone 0.316 µM); 94, 72, 86.3, 78.3, 94.2, 103, 97.4, 99.9, 100, 101, 93.3, 104 (2×), 95.9, 111, 96.9, 102, 94.5, 99.5, 92.8, 93.9% (compound alone 1 µM); 98.8, 74.3, 80.3, 99.1, 106 (3×), 110, 90.9, 104, 108, 100 (2×), 98.4, 105, 102 (2×), 113, 107% (compound alone 3.16 µM); 111, 137, 105 (4×), 109 (2×), 120 (2×), 98.8, 102, 107 (2×), 106, 113, 97.3, 112, 115% (compound alone 10 µM).

The values above are taken from PubChem BioAssay AID1919003 (Molecular Pharmacology Branch, DTP, NCI, 2023).
